Measured values as given in PubChem BioAssay AID652104 (National Center for Advancing Translational Sciences (NCATS), 2013).
Hit rate of the full screen: of about 410,000 compounds, about 7,200 (1.8%) were called active. Inconclusive means that the source gave no clear call. Such entries were picked first, then a sample of the others. Calls come from the whole dose curve; as a rule, active = well fitted activation curve with a large enough effect; inconclusive = small, poorly fitted or top-dose-only effect, or another doubt; inactive = no such curve, though single readings can be large or run the other way. No potency is given beside an inconclusive call; the fits are too rough.

experiment: qHTS of TDP-43 Inhibitors; conditions: TDP-43 expressing yeast growth rescue, BacTiter-Glo, 24 h; growth rescue (activation): at 46.1 µM (top of the series) unless noted; note: nearly all actives have a fitted effect of over 50% in size; for growth rescue (activation): % of control where 0% means no effect
How it was run: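 In this qHTS, compounds that restore growth of yeast expressing TDP-43 appear as activators. Cells (OD600=0.02, galactose medium, raffinose-pregrown) are incubated with compound 24 hr at 30 deg C and growth is quantified by BacTiter-Glo.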
Potency is the fitted concentration of half-maximal effect; tags give direction and shape of the fitted curve.

Row | SMILES | Potency | growth rescue (activation)
1 | O=C1c2cccnc2C(=O)N1Cc1ccc(S(=O)(=O)N2CCOc3ccc(Cl)cc32)cc1 | inconclusive [activator, single point] | –
2 | CCCNC(=O)OCc1cccnc1Sc1ccc(C)cc1 | active: 20 µM | –
3 | COc1ccc(-c2cc3nc(NCc4ccc(NC(C)=O)cc4)n(C)c(=O)c3s2)cc1OC | inconclusive [activator, partial curve, poor fit] | –
4 | Cc1ccsc1C(=O)OCC(=O)Nc1ccc(Cl)cn1 | inconclusive [activator, partial curve, poor fit] | –
5 | CCOC(=O)c1ccc(NC(=O)Cn2cc(S(=O)(=O)Cc3ccccc3F)c3ccccc32)cc1 | inactive | –
6 | CCCOc1ccccc1C(=O)Nc1ccc(-c2nc3ccc(C)cc3s2)cc1 | inconclusive [activator, partial curve] | –
7 | Cc1ccc(-c2nc3ccc(Br)cn3c2Cc2ccccc2)cc1 | inactive | –
8 | Cc1cccc(Nc2cc(C)nc3nc(Cc4ccc(Cl)cc4)nn23)c1 | inconclusive [activator, partial curve] | –
9 | COc1ccc(C(=O)OCC(=O)c2cc(C)n(CC3CCCO3)c2C)cc1[N+](=O)[O-] (stereo unspecified) | inconclusive [activator, full curve, poor fit] | –
10 | COC(CNc1ncnc2sc(-c3ccccc3)cc12)OC | inconclusive [activator, partial curve] | –
11 | C[C@]12CCC(=O)C=C1CC[C@@H]1[C@@H]2C(=O)C[C@@]2(C)[C@H]1CC[C@]2(O)C(=O)CO | inconclusive [activator, full curve, poor fit] | –
12 | N#Cc1nc(/C=C/c2ccc(F)cc2)oc1N1CCCCC1 | inconclusive [activator, full curve] | –
13 | CC(=O)N/N=C/c1cc(C(C)C)cc(/C=N/NC(C)=O)c1O | inactive | –
14 | CC(Oc1ccccc1)C(=O)Nc1ccc(C(=O)OCc2cc(=O)n3ccsc3n2)cc1 (stereo unspecified) | active: 20 µM | –
15 | COc1ccc(N2CCN(C(=S)NC(C)c3ccccc3)CC2)cc1 (stereo unspecified) | inconclusive [activator, partial curve] | –
16 | CC1CC(C)C(=O)C(C(CC2CC(=O)NC(=O)C2)OC(=O)CC(=O)c2ccccc2)C1 (stereo unspecified) | inconclusive [activator, single point] | –
17 | COc1cccc(C2=CC(=O)C[C@H](c3ccc(Cl)cc3)C2)c1 | active: 12.6 µM | –
18 | Cc1nn(CCc2nn[nH]n2)c2nc(-c3ccc(C4CCCCC4)cc3)cc(C(F)(F)F)c12 | inconclusive [activator, partial curve] | –
19 | COc1cc(C)c(N(C(C)=O)c2ccccc2)c(C)c1 | inconclusive [activator, partial curve, poor fit] | –
20 | Cc1cc(C)c(C)c(S(=O)(=O)N2CCC(C(=O)N3CCCCCCC3)CC2)c1C | inconclusive [activator, single point] | –
21 | CCOC(=O)C(=NO)C1=CSC2=NNC(C)(C)N12 | inconclusive [activator, single point] | –

Row | SMILES | Potency | growth rescue (activation)
22 | CC1=NN(C(N)=S)C(=O)C1N=Nc1ccc(C)c(Br)c1 (stereo unspecified) | inconclusive [activator, full curve, poor fit] | –
23 | O=c1cc(CSc2ccc(Cl)cc2)nc(-c2ccccn2)[nH]1 | – | inconclusive: -31.8% [activator]
24 | Cc1nc2sc(C(=O)c3ccccc3)c(N)c2c2c1CCCC2 | active: 22.4 µM | –
25 | Cc1ccc(CCNC(=O)c2ccc(Cn3c(=O)c4cccn4c4cccnc43)cc2)cc1 | inactive | –
26 | O=C(c1ccco1)N1CCN(c2ncnc3c2cnn3-c2ccccc2)CC1 | inconclusive [activator, single point] | –
27 | O=C(COc1cccc(Cl)c1)N1CCC(c2nc3ccccc3s2)CC1 | inconclusive [activator, single point] | –
28 | CCOC(=O)/C(=C\c1cccc(O)c1)c1nc2sc(C)c(C)c2c(=O)[nH]1 | inconclusive [activator, single point] | –
29 | CCOC(=O)c1ccc(Cl)c(S(=O)(=O)N2CCCC2)c1 | inconclusive [activator, partial curve] | –
30 | Nc1cc2c(cc1Cl)-c1ccccc1C2 | active: 12.6 µM | –
31 | Cc1cccc(C)c1NC(=O)C(C1CC1)n1c(-c2ccc(-c3ccccc3)cc2)nc2ccccc21 (stereo unspecified) | inconclusive [activator, partial curve] | –
32 | O=C(CSc1cccs1)Nc1ccc2ccccc2c1 | inconclusive [activator, partial curve] | –
33 | COC(=O)c1ccc(Cl)c(NS(=O)(=O)c2ccc3c(c2)OCCO3)c1 | active: 25.1 µM | –
34 | Cc1cc(C=NCCCO)c(C)n1-c1cc(Cl)ccc1Cl | inconclusive [activator, single point] | –
35 | COc1ccc(C(C(=O)NCc2ccccc2)n2c(=O)c(-c3ccccc3)nc3ccccc32)cc1 (stereo unspecified) | inactive | –
36 | O=C(CC(Nc1cccc(Cl)c1Cl)C(=O)O)c1ccccc1 (stereo unspecified) | inconclusive [activator, partial curve] | –
37 | Cc1ccc(NC(=O)C2CCN(c3ncccn3)CC2)cc1F | inconclusive [activator, partial curve] | –
38 | COc1ccccc1NC(=O)CCC(=O)OCc1ccc(Cl)cc1 | inconclusive [activator, partial curve] | –
39 | Cn1nc(C(C)(C)C)cc1NC(=O)C1(C)CCN1C(=O)CC(c1ccccc1)c1ccccc1 (stereo unspecified) | inconclusive [activator, full curve, poor fit] | –
40 | Cc1ccc(S(=O)(=O)Nc2ccc3c(c2)C(=O)N([C@H](C)CO)C[C@H](C)[C@H](CN(C)C(=O)Nc2cccc4ccccc24)OCCCC[C@@H](C)O3)cc1 | inconclusive [activator, single point] | –
41 | COc1ccc(N2CCN(S(=O)(=O)c3c(C)nc4sccn4c3=O)CC2)cc1 | inconclusive [activator, partial curve] | –
